{"source": "PubChem BioAssay AID1745845", "about": "(National Center for Advancing Translational Sciences (NCATS), 2022)", "note": "Screen size: about 360,000 compounds; about 2,600 (0.72%) were called active. Inconclusive results, whose numbers are uncertain, are shown with a selection of clear calls. Calls come from the whole dose curve; as a rule, active = well fitted inhibition curve with a large enough effect; inconclusive = small, poorly fitted or top-dose-only effect; inactive = no such curve, though single readings can be large or run the other way. Potencies beside an inconclusive call are fits to weak or partial responses and may not hold up. % is set by controls: 0 for no effect and ±100 for the full control effect; potency is the fitted concentration of half-maximal effect; tags give direction and shape of the fitted curve.", "data": [{"experiment": "Primary qHTS for Inhibitors of ATXN expression; note: nearly all actives have a fitted effect of over 55% in size", "conditions": "HEK-293 ATXN2-luciferase reporter, luminescence, 24 h; activity change, negative = inhibition: at 57 µM (top of the series)", "in_short": "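qHTS (up to 57 uM final) was run with 24 h compound exposure of reporter cells at 37 °C. Each well was multiplexed: SteadyGlo luminescence measured ATXN2-luciferase expression after a fluorogenic Gly-Phe-AFC viability readout (25 uM final).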", "values": [{"smiles": "NC(=O)NC(=O)COC(=O)CCCSc1nc2ccccc2s1", "Potency": "inconclusive: 3.55 µM [inhibitor, partial curve]"}, {"smiles": "COC1=CC(=O)c2nc(Cl)ccc2C1=O", "Potency": "active: 3.16 µM"}, {"smiles": "CCOc1ccc(N(C)S(=O)(=O)c2cc(-c3cc(C)no3)ccc2CC)cc1", "Potency": "inconclusive: 12.6 µM [inhibitor, partial curve]"}, {"smiles": "C[C@@H](NC(=O)c1nc[nH]c1C(=O)N[C@@H](Cc1ccccc1)C(=O)OC(C)(C)C)c1ccccc1", "Potency": "inconclusive: 39.8 µM [inhibitor, single point]"}, {"smiles": "O=C(NCc1ccccn1)c1ccc(COc2ccc(Cl)cc2)o1", "Potency": "inactive"}, {"smiles": "Oc1cc(NCCc2cccnc2)cc2cccnc12", "Potency": "active: 39.8 µM"}, {"smiles": "O=C(N/N=C/C(Cl)=C/c1ccccc1)c1cnccn1", "Potency": "inactive"}, {"smiles": "CCOC(=O)c1sc(NC(=O)c2ccc(S(=O)(=O)N3CCOCC3)cc2)cc1C", "Potency": "inconclusive: 39.8 µM [inhibitor, partial curve, poor fit]"}, {"smiles": "Cc1cccc(C)c1NC(=O)C1=C(O)c2ccccc2N(C)S1(=O)=O", "Potency": "inactive"}, {"smiles": "O=C1NC[C@H](Cc2ccccc2)N(C[C@H]2CCCN2C[C@H](Cc2ccccc2)N2C[C@H](Cc3ccccc3)N(CCc3ccccc3)C(=O)C2=O)C1=O", "Potency": "inconclusive: 35.5 µM [inhibitor, single point]"}, {"smiles": "CC1CCN(S(=O)(=O)c2ccc(Oc3ccc([N+](=O)[O-])cc3)cc2)CC1", "Potency": "inactive"}, {"smiles": "CCOc1ccc2nc(N=NC3=C(O)CC(C)(C)CC3=O)sc2c1", "Potency": "inconclusive: 7.52 µM [inhibitor, partial curve, poor fit]"}, {"smiles": "C=CCn1c(C)c(C(C)=O)c(N2CCN(C(c3ccccc3)c3ccccc3)CC2)nc1=S", "Potency": "inconclusive: 13.4 µM [inhibitor, single point]"}, {"smiles": "C=C1C(=O)[C@]23C[C@H]1CC[C@H]2[C@]1(C)[C@@H](OC(C)=O)CC[C@@](C)(C(=O)OC)[C@H]1C[C@@H]3OC(C)=O", "Potency": "inconclusive: 4.47 µM [inhibitor, single point]"}, {"smiles": "Cn1c(=O)n(CC(=O)N2CCN(c3nnc(-c4ccccc4)c4ccccc34)CC2)c2ccccc21", "Potency": "inconclusive: 31.6 µM [inhibitor, single point]"}, {"smiles": "COc1ccc(CCNC(=O)c2ccc3c(c2)N(Cc2cccc(Cl)c2)C(=O)CS3)cc1OC", "Potency": "inconclusive: 14.1 µM [inhibitor, partial curve]"}, {"smiles": "O=C(CN1C(=O)/C(=C\\c2cccc(Br)c2)Oc2ccccc21)NCCCN1CCOCC1", "Potency": "inconclusive: 28.2 µM [inhibitor, single point]"}, {"smiles": "O=C1c2[nH]nc(-c3ccc(Br)cc3)c2C(c2cccc(O)c2)N1c1ccc(Cl)cc1", "note": "(stereo unspecified)", "Potency": "inconclusive: 39.8 µM [inhibitor, single point]"}, {"smiles": "COc1ccccc1-c1cc(C(F)(F)F)nc(S(C)(=O)=O)n1", "Potency": "inconclusive: 39.8 µM [inhibitor, single point]"}, {"smiles": "Cc1cccc(C)c1NC(=O)Cn1c(=O)n(Cc2ccco2)c(=O)c2ccc(C(=O)NC3CCCC3)cc21", "Potency": "inactive"}, {"smiles": "O=C(NCCc1ccccc1)c1ccc2c(c1)OCO2", "activity change, negative = inhibition": "inconclusive: -88% [inhibitor]"}, {"smiles": "COC(=O)c1cc(-c2ccc(OC)c(OC)c2)c2c(=O)[nH]c(=O)n(C)c2n1", "Potency": "inconclusive: 31.6 µM [inhibitor, partial curve, poor fit]"}, {"smiles": "O=C(Cc1ccc(NC(=O)C2CCN(C(=O)C3CCC3)CC2)cc1)Nc1cccc(C(=O)N2CCCCC2)c1", "Potency": "inactive"}, {"smiles": "O=C(NC1CC1)c1cccc(-c2ccc3c(NC(=O)C4CC4)n[nH]c3c2)c1", "Potency": "inconclusive: 6.85 µM [inhibitor, partial curve, poor fit]"}, {"smiles": "CON(C)C(=O)CC1(CN(Cc2ccccc2)C(=O)OC(C)(C)C)CCCCC1", "Potency": "inconclusive: 22.4 µM [inhibitor, partial curve, poor fit]"}, {"smiles": "CC(=O)c1ccc(NC(=O)c2ccc(-c3nc(COc4ccc(C)cc4)c(C)o3)cc2)cc1", "Potency": "inactive"}, {"smiles": "CS(=O)(=O)c1nc(-c2ccc(Br)cc2)cc(-c2ccccc2)c1C#N", "Potency": "inconclusive: 28.2 µM [inhibitor, single point]"}, {"smiles": "Cc1ccccc1C(c1ncccc1C)N(C)C(=O)C1CCN(CCOc2ccc(Cl)cc2Cl)CC1", "note": "(stereo unspecified)", "Potency": "inconclusive: 39.8 µM [inhibitor, single point]"}, {"smiles": "COc1cccc(/C=N/NC(=O)C(=O)Nc2ccccc2OC(F)(F)C(F)F)c1O", "Potency": "active: 10 µM"}, {"smiles": "O=S1(=O)CC/C(=N/Nc2ccccn2)c2cc(F)ccc21", "Potency": "inconclusive: 22.4 µM [inhibitor, single point]"}, {"smiles": "COc1ccc(-n2c(=O)c3ccccc3n(Cc3ccccc3C)c2=O)c(OC)c1", "Potency": "inactive"}, {"smiles": "Cc1ccc(CN2C(=O)C(C)Nc3ncnc(N4CCN(c5ccccn5)CC4)c32)cc1", "note": "(stereo unspecified)", "Potency": "inconclusive: 28.2 µM [inhibitor, single point]"}, {"smiles": "C[C@@H]1CN([C@@H](C)CO)C(=O)c2cccc(NC(=O)c3ccncc3)c2O[C@@H]1CN(C)Cc1ccc(-c2ccccc2)cc1", "Potency": "inconclusive: 39.8 µM [inhibitor, partial curve, poor fit]"}, {"smiles": "COc1ccc(C(=O)Nc2ccc(-c3nc4ccccc4s3)cc2C)cc1Cl", "Potency": "inactive"}, {"smiles": "CCCCCCCCCCn1ccc(=N)cc1", "Potency": "inconclusive: 1.19 µM [inhibitor, full curve]"}, {"smiles": "C/C(=N\\Nc1nc(C)cc(-c2ccccc2)n1)c1ccc(C)o1", "Potency": "inconclusive: 39.8 µM [inhibitor, partial curve, poor fit]"}, {"smiles": "CC(=O)N1c2ccc(S(=O)(=O)N3CCC(C(=O)Nc4cccc(C)n4)CC3)cc2CC1C", "note": "(stereo unspecified)", "Potency": "inconclusive: 4.47 µM [inhibitor, partial curve, poor fit]"}, {"smiles": "O=Cc1ccc(N2Cc3ccccc3C2)cc1", "Potency": "inconclusive: 2.51 µM [inhibitor, partial curve]"}, {"smiles": "Cc1ccc(C(=O)Nc2onc3c2CCCC3)cc1", "Potency": "active: 7.94 µM"}, {"smiles": "Cc1nc2sc(C(N)=O)c(N)c2c(-c2ccc(Br)cc2)c1C(=O)Nc1ccc(Cl)cc1", "Potency": "active: 31.6 µM"}, {"smiles": "CCNC(=S)N1CCc2cc(OC)c(OC)cc2C1COc1ccccc1OC", "note": "(stereo unspecified)", "Potency": "inconclusive: 0.532 µM [inhibitor, partial curve, poor fit]"}]}]}
